Test results published in the supplement of paper PMC8728848.
The list shows a part of the results.

Key:
Test in all cases: glycan array binding signal (z-score within array); higher = stronger binding
Conditions in all cases: glycan notation: IUPAC condensed, linker removed
[1] = target: Neu5Ac(a2-6)Gal(b1-3)GlcNAc(b1-3)[Gal(b1-4)GlcNAc(b1-6)]Gal(b1-4)Glc
Procedure, shortened: (§1)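 Arrays were curated from the Consortium for Functional Glycomics database, 3228 in total, and kept only where the protein sequence was available. Binding is expressed as a within-array Z-score. This score was averaged across arrays of the same protein sequence at different concentrations or buffers and across linkers, and negative values can be read as non-binding.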

[2] = target: Neu5Ac(a2-6)Gal(b1-4)Glc
Procedure, shortened: as §1

[3] = target: Neu5Ac(a2-6)Gal(b1-4)GlcNAc
Procedure, shortened: as §1

[4] = target: Neu5Ac(a2-6)Gal(b1-4)GlcNAc(b1-2)Man(a1-3)Man(b1-4)GlcNAc(b1-4)GlcNAc
Procedure, shortened: as §1

[5] = target: Neu5Ac(a2-6)Gal(b1-4)GlcNAc(b1-2)Man(a1-3)[Gal(b1-4)GlcNAc(b1-2)Man(a1-6)]Man(b1-4)GlcNAc(b1-4)GlcNAc
Procedure, shortened: as §1

[6] = target: Neu5Ac(a2-6)Gal(b1-4)GlcNAc(b1-2)Man(a1-3)[GlcNAc(b1-2)Man(a1-6)]Man(b1-4)GlcNAc(b1-4)GlcNAc
Procedure, shortened: as §1

[7] = target: Neu5Ac(a2-6)Gal(b1-4)GlcNAc(b1-2)Man(a1-3)[GlcNAc(b1-2)Man(b1-4)GlcNAc(b1-2)Man(a1-6)]Man(b1-4)GlcNAc(b1-4)GlcNAc
Procedure, shortened: as §1

[8] = target: Neu5Ac(a2-6)Gal(b1-4)GlcNAc(b1-2)Man(a1-3)[Man(a1-6)]Man(b1-4)GlcNAc(b1-4)GlcNAc
Procedure, shortened: as §1

[9] = target: Neu5Ac(a2-6)Gal(b1-4)GlcNAc(b1-2)Man(a1-3)[Neu5Ac(a2-6)Gal(b1-4)GlcNAc(b1-2)Man(a1-6)]Man(b1-4)GlcNAc(b1-4)GlcNAc
Procedure, shortened: as §1

[10] = target: Neu5Ac(a2-6)Gal(b1-4)GlcNAc(b1-2)Man(a1-6)Man(b1-4)GlcNAc(b1-4)GlcNAc
Procedure, shortened: as §1

[11] = target: Neu5Ac(a2-6)Gal(b1-4)GlcNAc(b1-2)Man(a1-6)[Gal(b1-4)GlcNAc(b1-2)Man(a1-3)]Man(b1-4)GlcNAc(b1-4)GlcNAc
Procedure, shortened: as §1

[12] = target: Neu5Ac(a2-6)Gal(b1-4)GlcNAc(b1-2)Man(a1-6)[GlcNAc(b1-2)Man(a1-3)]Man(b1-4)GlcNAc(b1-4)GlcNAc
Procedure, shortened: as §1

[13] = target: Neu5Ac(a2-6)Gal(b1-4)GlcNAc(b1-2)Man(a1-6)[Man(a1-3)]Man(b1-4)GlcNAc(b1-4)GlcNAc
Procedure, shortened: as §1

[14] = target: Neu5Ac(a2-6)Gal(b1-4)GlcNAc(b1-3)Gal(b1-3)GlcNAc
Procedure, shortened: as §1

[15] = target: Neu5Ac(a2-6)Gal(b1-4)GlcNAc(b1-3)Gal(b1-4)GlcNAc
Procedure, shortened: as §1

[16] = target: Neu5Ac(a2-6)Gal(b1-4)GlcNAc(b1-3)Gal(b1-4)GlcNAc(b1-3)Gal(b1-4)GlcNAc
Procedure, shortened: as §1

[17] = target: Neu5Ac(a2-6)Gal(b1-4)GlcNAc(b1-3)Gal(b1-4)[Fuc(a1-3)]GlcNAc(b1-3)Gal(b1-4)[Fuc(a1-3)]GlcNAc
Procedure, shortened: as §1

[18] = target: Neu5Ac(a2-6)Gal(b1-4)GlcNAc(b1-3)GalNAc
Procedure, shortened: as §1

[19] = target: Neu5Ac(a2-6)Gal(b1-4)GlcNAc6S
Procedure, shortened: as §1

[20] = target: Neu5Ac(a2-6)GalNAc
Procedure, shortened: as §1

[21] = target: Neu5Ac(a2-6)GalNAc(b1-4)GlcNAc
Procedure, shortened: as §1

[22] = target: Neu5Ac(a2-6)GlcNAc(b1-4)GlcNAc
Procedure, shortened: as §1

[23] = target: Neu5Ac(a2-6)GlcNAc(b1-4)GlcNAc(b1-4)GlcNAc
Procedure, shortened: as §1

[24] = target: Neu5Ac(a2-8)Neu5Ac
Procedure, shortened: as §1

[25] = target: Neu5Ac(a2-8)Neu5Ac(a2-3)Gal(b1-4)Glc
Procedure, shortened: as §1

[26] = target: Neu5Ac(a2-8)Neu5Ac(a2-3)[Gal(b1-3)GalNAc(b1-4)]Gal(b1-4)Glc
Procedure, shortened: as §1

[27] = target: Neu5Ac(a2-8)Neu5Ac(a2-3)[GalNAc(b1-4)]Gal(b1-4)Glc
Procedure, shortened: as §1

[28] = target: Neu5Ac(a2-8)Neu5Ac(a2-8)Neu5Ac
Procedure, shortened: as §1

[29] = target: Neu5Ac(a2-8)Neu5Ac(a2-8)Neu5Ac(a2-3)Gal(b1-4)Glc
Procedure, shortened: as §1

[30] = target: Neu5Ac(a2-8)Neu5Ac(a2-8)Neu5Ac(a2-3)[GalNAc(b1-4)]Gal(b1-4)Glc
Procedure, shortened: as §1

[31] = target: Neu5Ac(a2-8)Neu5Ac(a2-8)Neu5Ac(a2-8)Neu5Ac(a2-3)[GalNAc(b1-4)]Gal(b1-4)Glc
Procedure, shortened: as §1

[32] = target: Neu5Ac(b2-6)Gal(b1-4)GlcNAc
Procedure, shortened: as §1

[33] = target: Neu5Ac(b2-6)GalNAc
Procedure, shortened: as §1

[34] = target: Neu5Ac9Ac(a2-3)Gal(b1-3)GlcNAc
Procedure, shortened: as §1

[35] = target: Neu5Ac9Ac(a2-3)Gal(b1-4)GlcNAc
Procedure, shortened: as §1

[36] = target: Neu5Ac9Ac(a2-6)Gal(b1-4)GlcNAc
Procedure, shortened: as §1

[37] = target: Neu5Gc(a2-3)Gal(b1-3)GlcNAc
Procedure, shortened: as §1

[38] = target: Neu5Gc(a2-3)Gal(b1-3)[Fuc(a1-4)]GlcNAc
Procedure, shortened: as §1

[39] = target: Neu5Gc(a2-3)Gal(b1-4)Glc
Procedure, shortened: as §1

[40] = target: Neu5Gc(a2-3)Gal(b1-4)GlcNAc
Procedure, shortened: as §1

[41] = target: Neu5Gc(a2-3)Gal(b1-4)[Fuc(a1-3)]GlcNAc
Procedure, shortened: as §1

[42] = target: Neu5Gc(a2-6)Gal(b1-4)GlcNAc
Procedure, shortened: as §1

[43] = target: Neu5Gc(a2-6)GalNAc
Procedure, shortened: as §1

[44] = target: Neu5Gc(b2-6)Gal(b1-4)GlcNAc
Procedure, shortened: as §1

B1: Tectonin 2 (Laccaria bicolor) (protein)
chain: MPWKGISGSLSRISAGSVTNVWGVNAANNIYRYTGDDAKPWVQIPGALTDIGAAADGTVWGVNAAGNIYRYVWDSNHWTQIKGALKRISAGSRTNVWGVNAGGAIYRYTGDDANPWVQIPGVLSDIGAGADGTVWGVNAAGEIYRYTGDQGDPNHWVKIPGALSAISAGIKTNVWGVNSANNIYTSTGDDKNPWLGIGGSLVDIGAGTDGVVWGVNAGGGIYRWIRD
- glycan array binding signal (z-score) [1]: -0.09
- glycan array binding signal (z-score) [2]: -0.183
- glycan array binding signal (z-score) [3]: -0.063
- glycan array binding signal (z-score) [4]: 0.814
- glycan array binding signal (z-score) [5]: -0.182
- glycan array binding signal (z-score) [6]: 0.704
- glycan array binding signal (z-score) [7]: 0.63
- glycan array binding signal (z-score) [8]: 0.386
- glycan array binding signal (z-score) [9]: 0.615
- glycan array binding signal (z-score) [10]: -0.091
- glycan array binding signal (z-score) [11]: -0.38
- glycan array binding signal (z-score) [12]: 1.2
- glycan array binding signal (z-score) [13]: -0.281
- glycan array binding signal (z-score) [14]: 0.08
- glycan array binding signal (z-score) [15]: -0.014
- glycan array binding signal (z-score) [16]: -0.075
- glycan array binding signal (z-score) [17]: 0.277
- glycan array binding signal (z-score) [18]: 1.14
- glycan array binding signal (z-score) [19]: 0.765
- glycan array binding signal (z-score) [20]: -0.325
- glycan array binding signal (z-score) [21]: 0.405
- glycan array binding signal (z-score) [22]: -0.219
- glycan array binding signal (z-score) [23]: -0.089
- glycan array binding signal (z-score) [24]: -0.07
- glycan array binding signal (z-score) [25]: 0.956
- glycan array binding signal (z-score) [26]: -0.19
- glycan array binding signal (z-score) [27]: -0.311
- glycan array binding signal (z-score) [28]: 0.261
- glycan array binding signal (z-score) [29]: 0.442
- glycan array binding signal (z-score) [30]: -0.445
- glycan array binding signal (z-score) [31]: 2.33
- glycan array binding signal (z-score) [32]: -0.242
- glycan array binding signal (z-score) [33]: 0.283
- glycan array binding signal (z-score) [34]: 0.2
- glycan array binding signal (z-score) [35]: -0.25
- glycan array binding signal (z-score) [36]: 0.77
- glycan array binding signal (z-score) [37]: -0.514
- glycan array binding signal (z-score) [38]: 0.034
- glycan array binding signal (z-score) [39]: -0.196
- glycan array binding signal (z-score) [40]: -0.145
- glycan array binding signal (z-score) [41]: 0.328
- glycan array binding signal (z-score) [42]: 0.165
- glycan array binding signal (z-score) [43]: 0.497
- glycan array binding signal (z-score) [44]: -0.222
